Measured values from PubChem BioAssay AID1508642 (National Center for Advancing Translational Sciences (NCATS), 2021).
Among all 43,000 compounds or so, about 200 (0.47%) were called active. About 12% were inconclusive and are not listed. The call rests on the fitted dose curve; in most records, active means well fitted cell-killing curve with a large enough effect; inconclusive means small, poorly fitted or top-dose-only effect, or effect the other way; inactive means flat fitted curve, though single readings scatter. The list shows a part of the results.

Experiment: Cell viability qHTS assay in S16 Pmp22-F2sN cells; further: nearly all actives have a fitted effect of over 65% in size
Details: S16 Pmp22-F2sN Schwann cells (luciferase reporters placed in the Pmp22 gene) viability, CellTiter-Glo, 24 h; series mostly up to 57.5 µM; activity change, negative = cytotoxicity: at the top concentration
Outline: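 Rat S16 Schwann reporter line, 24 h treatment with library compounds delivered at 23 nL per well. Cell viability by CellTiter-Glo luminescence.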
On the % scale 0 is the no-effect control and ±100 the full control effect.

Row | Compound | activity change, negative = cytotoxicity
1 | CC(=O)Nc1ccc(S(=O)(=O)NC2=NCN(CCO)CN2)cc1 | inactive: 1.74%
2 | COc1ccc(NC(=O)C2=C(C)Nc3ncnn3C2c2cccn2C)cc1 (stereo not drawn) | inactive: 17.4%
3 | Fc1cccc(-c2nnn3c2nc(NC2CCCCC2)c2ccccc23)c1 | inactive: 9.13%
4 | Cc1ccc(S(=O)(=O)c2nnn(-c3ccc(F)c(Cl)c3)c2N)cc1 | inactive: -13%
5 | COC(=O)c1ccccc1NC(=O)C1=CC(c2cccs2)=NS(=O)(=O)N1C | inactive: 0.615%
6 | COc1ccc(-n2nc3cc(C)c(NC(=O)c4ccc(-c5ccc(Cl)cc5)o4)cc3n2)cc1 | inactive: 4.45%
7 | Cc1cc(OCC(=O)Nc2cc(-c3nc4ncccc4o3)ccc2C)ccc1Cl | inactive: 8.97%
8 | COc1ccc(OCc2ccc(-c3nc(C#N)c(NC(C)c4ccccc4)o3)o2)cc1 (stereo not drawn) | inactive: -1.58%
9 | CCOc1ccc2nc(N3CCCC(C(=O)NCCc4ccc(OCC)c(OCC)c4)C3)sc2c1 (stereo not drawn) | inactive: 9.6%
10 | Cc1cccc(C)c1Nc1c(-c2ccccn2)nc2c(C)cccn12 | inactive: -13.6%
11 | Cc1nn(CC(=O)Nc2ccc(OC(F)(F)F)cc2)c(=O)c2c(C)n(-c3ccc(Cl)cc3)nc12 | inactive: -8.72%
12 | COc1ccc(-c2csc3ncnc(Nc4cccc(OC)c4)c23)cc1 | inactive: -0.457%
13 | CSc1cccc(NC(=O)Nc2ccccc2OCc2cc(=O)n3cc(C)ccc3n2)c1 | inactive: -0.0272%
14 | CCOCCCNC(=O)c1ccc(-n2c(-c3ccccc3)cc3c2CCC(C)C3)cc1 (stereo not drawn) | inactive: -2.92%
15 | O=C(Cc1cccs1)NC1CC(=O)N(c2ccc(F)cc2)C1 (stereo not drawn) | inactive: 11.2%
16 | COc1ccc(NC(=O)CCNS(=O)(=O)c2ccc3c(c2)CCCC(=O)N3)cc1Cl | inactive: -7.52%
17 | O=C(NCc1ccc(Cl)cc1)NCc1noc2ccccc12 | inactive: -1.03%
18 | CCc1ccc(S(=O)(=O)Nc2ccc3c(c2)n(C)c(=O)c(=O)n3C)cc1 | inactive: 1.86%
19 | Cc1ccc2c(c1)C(c1ccc(F)cc1)N(C(=O)c1ccc(S(=O)(=O)N3CCCCC3)cc1)CC(=O)N2 (stereo not drawn) | inactive: -26.4%
20 | COc1ccc(C(=O)Nc2ccc3nc(SCC(=O)N4CCc5ccccc54)sc3c2)cc1 | inactive: 21.4%
21 | Cc1ccc(S(=O)(=O)n2nc(-c3ccc(Cl)cc3)nc2NCc2ccc(F)cc2)cc1 | inactive: -0.396%
22 | Cc1cc(C)c2c(CC(=O)Nc3ccc(S(=O)(=O)Nc4nc(C)cc(C)n4)cc3)coc2c1 | inactive: -3.4%
23 | COc1ccc(CNC(=O)c2cc3cc(OC)ccc3oc2=O)cc1 | inactive: 1.87%
24 | Cc1cc(S(=O)(=O)C(CNC(=O)c2ccc(F)c(F)c2)c2cccs2)ccc1F (stereo not drawn) | inactive: 4.85%
25 | Cc1ccc(-n2ncc3c(Nc4cccc(C(=O)O)c4)ncnc32)cc1 | inactive: -0.484%

Row | Compound | activity change, negative = cytotoxicity
26 | Cc1cccc(/C=C/c2onc(C)c2S(=O)(=O)N2CCC(C(=O)N3CCCCC3)CC2)c1 | inactive: -26.8%
27 | CCCCn1cnc2cc(NCc3ccccc3Cl)ccc21 | inactive: -24.8%
28 | Cc1ccc(NC(=O)C(=O)NCC(c2cccnc2)N2CCN(Cc3ccccc3)CC2)cc1F (stereo not drawn) | inactive: -12.1%
29 | CCCSCCCNC(=O)C1CCN(c2nc3ccccc3nc2C(F)(F)F)CC1 | inactive: -29.8%
30 | Cc1ccc(-c2ccc(=O)n(CC(=O)NCCc3ccccc3)n2)cc1 | inactive: -0.972%
31 | O=S(=O)(NCCc1csc2nc(-c3ccccc3)nn12)c1cc(F)ccc1F | inactive: -1.92%
32 | COc1cccc(-c2nc(CS(=O)(=O)CC(=O)N3CCN(c4cc(C)ccc4C)CC3)c(C)o2)c1 | inactive: -22.8%
33 | CCc1ccc(C2CC(=O)c3c([nH]c(C(=O)OC4CCCC4)c3C)C2)cc1 (stereo not drawn) | inactive: -6.87%
34 | CCOC(=O)c1ccc(CN(Cc2ccc(F)cc2)S(=O)(=O)c2ccc(F)c(C(=O)Nc3c(C)cccc3C)c2)cc1 | inactive: -7.25%
35 | COc1ccc(OC)c(C2CC(=O)Nc3c2c(=O)[nH]c2ncnn32)c1 (stereo not drawn) | inactive: 0.58%
36 | COc1ccc(C2NC(=O)N(C)C3=C2C(=O)N(c2ccc(C(=O)O)cc2)C3)cc1 (stereo not drawn) | inactive: 8.03%
37 | CCc1ccccc1NS(=O)(=O)c1ccc2[nH]cc(C(=O)N(CC)Cc3ccccc3)c(=O)c2c1 | inactive: 0.299%
38 | CCCc1ccc(OCC(=O)Nc2sc(C(=O)OCC)c(C)c2C(=O)OCC)cc1 | inactive: 13.4%
39 | Cc1ccc(C)c(N2CCN(S(=O)(=O)c3ccc4c(c3)C(C(C)C)C(=O)N4)CC2)c1 (stereo not drawn) | inactive: -5.93%
40 | CSc1ncc(C(=O)NCc2ccccc2F)c(-c2ccccc2)n1 | inactive: 1.38%
41 | COc1ccc(S(=O)(=O)Nc2c(C)nc3nc[nH]n3c2=O)cc1 | inactive: -0.409%
42 | Cc1ccc2c(CNCc3ccc(C)o3)c(C(=O)O)n(Cc3ccccc3C)c2c1 | inactive: -22.7%
43 | CCc1ccc2occ(CC(=O)Nc3c(C(=O)c4ccc(C)cc4)oc4ccccc34)c2c1 | inactive: 18.7%
44 | Cc1ccccc1CSc1cn(CC(=O)N2CCCCC2)c2ccccc12 | inactive: -10.1%
45 | CCOC(=O)c1c(C)oc2nc(C)nc(NCC3CCN(Cc4ccc(C)cc4)CC3)c12 | inactive: -3.8%
46 | CC1Cc2ccccc2N1C(=O)CSc1nc2ccc(NC(=O)COc3ccccc3)cc2s1 (stereo not drawn) | inactive: 15.6%
47 | CC1=C(C(=O)NCc2cccc(F)c2)C2(CCCCC2)OC1=O | inactive: -6.49%
48 | CCOC(=O)C(C)Sc1ccc2nnc(CCNS(=O)(=O)c3ccc(C)cc3)n2n1 (stereo not drawn) | inactive: 8.91%
49 | N#Cc1c(C(F)(F)F)cc(-c2cccs2)nc1SCc1ccc(F)cc1 | inactive: 7.23%
50 | CCOc1ccc(CCNC(=O)c2oc(=O)c3ccccc3c2-c2ccc(C)cc2)cc1OCC | inactive: 7.37%

Row | Compound | activity change, negative = cytotoxicity
51 | Cc1ccc(NC(=O)CCS(=O)(=O)c2ccc(Br)s2)c(Br)c1 | inactive: 10.1%
52 | CC(C)(C)c1ccc(C(=O)NCCc2csc(-c3ccc(Cl)cc3)n2)cc1 | inactive: 15.9%
53 | Cc1nn(C)cc1CN(C)C(=O)c1cc(-c2ccccc2)nc2ccc(Br)cc12 | inactive: 9.61%
54 | O=C(Nc1cccc(C(F)(F)F)c1)c1cnn(-c2cccc(F)c2)c1C1CCNCC1 | inactive: -26.1%
55 | CCOC(=O)C1=C(CN2CCN(c3ccccc3OC)CC2)NC(=O)NC1c1ccccc1 (stereo not drawn) | inactive: -15.1%
56 | Cc1cc(C)cc(NC(=O)N2CCC(CN3CCOCC3)CC2)c1 | inactive: 13.8%
57 | CC(C)NC(=O)N1[C@H](c2cccs2)[C@@H](C)C(=O)[C@@H](C)[C@@H]1c1cccs1 | inactive: 5.55%
58 | O=C(CN1CCCN(Cc2ccccc2F)S1(=O)=O)Nc1ccc(F)c(Cl)c1 | inactive: -13.5%
59 | COc1ccc(C(=O)Nc2ccc(N(C)Cc3ccccc3)c(C(=O)O)c2)cc1 | inactive: -1.5%
60 | CCOC(=O)Cn1c(=O)n(CC2CCCO2)c2nc(-c3ccccc3)nc(C(N)=O)c21 (stereo not drawn) | inactive: 10.1%
61 | COC(=O)c1cc2oc(C)cc2n1CC(=O)Nc1ccc(C(C)C)cc1 | inactive: -5.32%
62 | CCc1cccc(C)c1NC(=O)Cn1nc(C)n2cccc2c1=O | inactive: -3.03%
63 | CCCCNC(=O)c1ccc2c(=O)n(Cc3ccc(OC)cc3)c(=O)[nH]c2c1 | inactive: 4.75%
64 | Cc1ccc(CNCc2ccccc2Cl)s1 | inactive: 3.44%
65 | COCc1cc(C)nc2c1C(=O)NC(c1ccc(F)cc1)N2Cc1ccccc1 (stereo not drawn) | inactive: 7.07%
66 | Cc1cccc(NC(=O)CCn2cnc3ccccc3c2=O)c1 | inactive: -9.83%
67 | CCCc1nnc(NC(=O)c2nc(SCC)ncc2Cl)s1 | inactive: -0.458%
68 | CCOC(=O)C1=C(CS(=O)(=O)c2ccc(F)c(C)c2)NC(=O)NC1c1ccccc1OC (stereo not drawn) | inactive: -0.638%
69 | CCOC(=O)c1noc2ncn(CC(=O)Nc3cccc(C(F)(F)F)c3)c(=O)c12 | inactive: 14%
70 | CCc1nn(CC(=O)N2CCCCC2)c(=O)c2cc3occc3n12 | inactive: 18.3%
71 | CCOc1ccc(NC(=O)N2CCN(c3nnc(C)c4c(C)n(-c5ccccc5)nc34)CC2)cc1 | inactive: 1.44%
72 | CCOc1ccccc1NC(=O)CN(C)S(=O)(=O)c1ccc(C(=O)N2CCOCC2)s1 | inactive: 4.03%
73 | O=c1c(=O)n(-c2ccc(F)c(F)c2)ccn1Cc1ccc(F)cc1Cl | inactive: 2.57%
74 | COc1ccc(C)cc1NC(=O)C1CCCN(c2ncnc3onc(C)c23)C1 (stereo not drawn) | inactive: -9.44%
75 | Cc1ccc2c(=O)cc(C(=O)Nc3sc4c(c3C(=O)NCC3CCCO3)CCC4)oc2c1 (stereo not drawn) | inactive: -1.79%

Row | Compound | activity change, negative = cytotoxicity
76 | CCC(C(=O)NCc1ccccc1OC)n1nc(C)n2c(cc3occc32)c1=O (stereo not drawn) | inactive: 1.01%
77 | Cc1oc(-c2ccccc2Cl)nc1CS(=O)(=O)CC(=O)NCc1ccc(F)cc1 | inactive: -1.46%
78 | COc1ccc(-n2nc(C(=O)Nc3cc(C)ccn3)c3c4ccccc4n(C)c3c2=O)cc1 | inactive: 24.8%
79 | CCCCn1c(=O)n(-c2cc(OC)ccc2OC)c(=O)c2c3c(sc21)CN(C(C)=O)CC3 | inactive: 19.5%
80 | O=C(CC1N=C2c3ccccc3N=C(SCc3ccccc3Cl)N2C1=O)NCCc1ccccc1 (stereo not drawn) | inactive: -16.9%
81 | CCOc1ccc(-n2nc3ccc(NC(=O)c4ccc(OC)c(Cl)c4)cc3n2)cc1 | inactive: 5.01%
82 | Cc1cc(Cl)ccc1NC(=O)Cc1ccc(NC(=O)N2CCCCc3ccccc32)cc1 | inactive: -25.8%
83 | COC(=O)c1cccc(NC2=NS(=O)(=O)c3ccccc32)c1 | inactive: -2.51%
84 | Cc1ccc(Nc2c(-c3ccc(C)s3)nc3ccccn23)cc1 | inactive: 0.902%
85 | CCc1nn2c(=O)cc(COC(=O)c3ccccc3)nc2s1 | inactive: -3.33%
86 | CCOc1ccccc1NC(=O)N(Cc1ccc(C)o1)C1CCN(C(C)=O)CC1 | inactive: -6.35%
87 | CCOC(=O)CNC(=O)N1CCCN(S(=O)(=O)c2ccc3c(ccn3CC)c2)CC1 | inactive: 28.2%
88 | Cc1ccc(-c2cc3ncc4c(n3n2)-c2cc(F)ccc2OC4)cc1 | inactive: 2.21%
89 | CCc1ccc(C(=O)c2cn(CC(=O)Nc3cccc(OC)c3)c3cc4c(cc3c2=O)OCO4)cc1 | inactive: 3.19%
90 | O=C(c1ccccc1Br)N(Cc1ccco1)Cc1ccco1 | inactive: 6.08%
91 | COc1ccc(C)cc1NC(=O)C1CCN(S(=O)(=O)c2cc(Br)cc3c2N(C(C)=O)CC3)CC1 | inactive: 3.62%
92 | COc1cccc(CNC(=O)Cc2c(C)c3c(cc(C)c4c(C)c(C)oc43)oc2=O)c1 | inactive: 4.83%
93 | O=S(=O)(c1ccc(Cl)cc1)c1nc(-c2cccs2)oc1SCc1ccc(F)cc1 | inactive: 7.24%
94 | Cn1nnc2c(NCc3ccc(Cl)cc3)ncnc21 | inactive: -13.6%
95 | CCc1ccc(CNC(=O)c2cc3n(n2)CCCN(Cc2ccccc2)C3=O)cc1 | inactive: 8.08%
96 | Cc1ccc(Cn2c(=O)n(CCc3ccc(Cl)cc3)c(=O)c3ccccc32)cc1 | inactive: -1.04%
97 | Cc1ccc(-n2ncc3c(NC(C)c4ccccc4)ncnc32)cc1 (stereo not drawn) | inactive: 4.55%
98 | COc1ccc(NC(=O)Cn2c(=O)n(Cc3ccccc3OC)c(=O)c3cccnc32)cc1Cl | inactive: -6.9%
